# In PubChem BioAssay AID485364 (National Center for Advancing Translational Sciences (NCATS), 2010):
# Hit rate of the full screen: of about 360,000 compounds, about 11,000 (3.1%) were called active. The shares of active, inactive and inconclusive entries below differ from those in the screen. The call rests on the fitted dose curve; in most records, active means well fitted inhibition curve with a large enough effect; inconclusive means small, poorly fitted or top-dose-only effect; inactive means no such curve, though single readings can be large or run the other way. No potency is given beside an inconclusive call; the fits are too rough.
# Molecular target: Schistosoma mansoni thioredoxin glutathione reductase (TGR) (UniProt Q962Y6)
# Assay: qHTS Assay for the Inhibitors of Schistosoma Mansoni Peroxiredoxins; further: nearly all actives have a fitted effect of over 60% in size
# Settings: purified TGR, DTNB reduction, TNB absorbance 405 nm; series mostly up to 114 µM
# Summary of the method: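 Kinetic colorimetric format: TGR-catalysed, NADPH-driven DTNB reduction monitored via TNB absorbance. Enzyme dispensed at 20 nM; compound exposure 15 min at room temperature before reaction start.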
# Potency means the concentration at half of the fitted maximal effect; tags describe the fitted curve by direction and shape.
row,SMILES,Potency
1,Cc1ccc(-c2ccc(=O)n(CC(=O)Nc3ccc(C)cc3Cl)n2)cc1,inactive
2,CC(=O)c1cccc(NC(=S)NC(=O)c2cncc(Br)c2)c1,"inconclusive [inhibitor, full curve]"
3,COc1ccccc1-c1nc(SCC(=O)NCc2ccc(C)cc2)c2c(=O)n(C)c(=O)n(C)c2n1,"inconclusive [inhibitor, single point]"
4,COc1ccc(CN2CCNC(=O)C2CC(=O)O)cc1OC (configuration not stated),"inconclusive [inhibitor, partial curve]"
5,COc1cc2ccccc2cc1C(=O)NC(=S)Nc1cccc(C(=O)O)c1C,"inconclusive [inhibitor, partial curve]"
6,CCn1c(C)c(C(C)=O)c(N2CCN(C(=O)c3ccco3)CC2)nc1=S,"inconclusive [inhibitor, partial curve]"
7,C#CC(C)(CC)NC(=O)Cn1nnc(-c2cccc(C(F)(F)F)c2)n1 (configuration not stated),"inconclusive [inhibitor, single point]"
8,COC(=O)CN(Cc1ccco1)S(=O)(=O)c1ccccc1,active: 22.4 µM
9,Cc1cc(N2CCC(C(=O)Nc3ccc(F)cc3)CC2)nc(-c2ccccc2)n1,inactive
10,N#C/C(=C\c1ccc(-c2cccc(Cl)c2)o1)C(=O)Nc1cccc2cccnc12,"inconclusive [inhibitor, partial curve, poor fit]"
11,CC(C)c1ccc(-n2c(O)c(/C=N/NC(=O)c3ccncc3)c(=O)[nH]c2=O)cc1,"inconclusive [inhibitor, full curve]"
12,Cc1onc(-c2ccccc2Cl)c1C(=O)O/N=C(\N)c1ccc([N+](=O)[O-])o1,"inconclusive [inhibitor, partial curve]"
13,CSc1nc(-c2ccco2)nn1C(=O)c1ccco1,"inconclusive [inhibitor, full curve]"
14,O=C(CCN1C(=O)c2ccccc2C1=O)N1CCN(Cc2ccc(Cl)cc2Cl)CC1,"inconclusive [inhibitor, full curve, poor fit]"
15,CCc1cc(C(c2cccc(OC)c2)N2CCOCC2)c(NC(=O)c2ccccc2)s1 (configuration not stated),"inconclusive [inhibitor, partial curve]"
16,CCOc1cc(/C=C/C(=O)c2ccc(OC)c(CN3CCOCC3)c2)cc(Br)c1O,"inconclusive [inhibitor, partial curve]"
17,Cc1ccc(-c2noc(CCC(=O)NCc3ccc4c(c3)OCO4)n2)cc1,"inconclusive [inhibitor, full curve, poor fit]"
18,Cc1ccc(NC(=O)c2cc(N3C(=O)C=CC3=O)ccc2Cl)cc1C,active: 0.794 µM
19,CCc1nc(N[C@@H](Cc2c[nH]c3ccccc23)C(=O)O)c2oc3ccccc3c2n1,"inconclusive [inhibitor, full curve, poor fit]"
20,S=C(NCc1ccncc1)Nc1cc(Cl)cc(Cl)c1,"inconclusive [inhibitor, partial curve]"
21,COc1ccccc1Cn1cc(C(=O)c2ccc(C)cc2)c(=O)c2cc(C)ccc21,inactive

row,SMILES,Potency
1,CCCSc1nnc(N2C(=O)C(O)=C(C(=O)c3ccco3)C2c2ccccc2F)s1 (configuration not stated),active: 7.08 µM
2,COc1ccc(S(=O)(=O)Nc2ccccc2C(=O)NCc2ccco2)cc1Br,"inconclusive [inhibitor, partial curve]"
3,COc1ccc(CC(=O)Nc2cccc(C(=O)O)c2C)cc1,inactive
4,COc1cc(OC)c(OC)cc1/C=C1\C(=O)NC(=O)N(Cc2ccccc2)C1=O,"inconclusive [inhibitor, full curve, poor fit]"
5,COC(=O)CSc1nc2nc(C)cc(C)n2n1,inactive
6,Cc1cc(=O)oc(C)c1C(=O)N1CCN(C(c2ccccc2)c2ccccc2)CC1,"inconclusive [inhibitor, partial curve]"
7,CCCCn1nnnc1SCC(=O)Nc1sc2c(c1C#N)CCCC2,"inconclusive [inhibitor, full curve, poor fit]"
8,Cc1cc(/C=N/Nc2ccc([N+](=O)[O-])cn2)c(C)n1-c1cccc(C(=O)O)c1,"inconclusive [inhibitor, partial curve]"
9,Cc1ccc2nc(SCC(=O)c3c(N)n(C4CC4)c(=O)[nH]c3=O)[nH]c2c1,"inconclusive [inhibitor, partial curve]"
10,Cc1ccccc1NC(=O)c1nc2nccc(C)n2n1,inactive
11,C=CCn1c(-c2cc3c(s2)CCC(CC)C3)n[nH]c1=S (configuration not stated),inactive
12,O=C(CSc1cccc[n+]1[O-])Nc1ccccc1Oc1ccccc1,inactive
13,N#C[C@@H]1[C@@H]2C(=O)N(c3ccc4c(c3)OCCO4)C(=O)[C@@H]2C2c3ccccc3C=CN21 (some centres not stated),"inconclusive [inhibitor, partial curve]"
14,CC(=O)c1ccc2noc(-c3ccc(F)cc3)c2c1,"inconclusive [inhibitor, partial curve]"
15,O=c1c2cc3c(cc2n(Cc2ccc(F)cc2)c(=O)n1Cc1nc(-c2ccccc2)no1)OCO3,inactive
16,Cc1ccccc1OCC(=O)OCC(=O)NCc1ccccc1,"inconclusive [inhibitor, single point]"
17,CCc1c(C)sc(NC(=O)c2ccco2)c1C(=O)N1CCCCC1,"inconclusive [inhibitor, partial curve]"
18,Cc1ccc2oc(-c3ccc(C)c(NC(=O)c4ccc(N5CCC(C)CC5)c([N+](=O)[O-])c4)c3)nc2c1,inactive
19,Cc1oc(-c2ccc(Cl)cc2)nc1CS(=O)CC(=O)N1CCN(c2cccc(C(F)(F)F)c2)CC1 (configuration not stated),"inconclusive [inhibitor, partial curve]"
20,COc1ccc(CCNC(=O)CNS(=O)(=O)c2ccc(N(C)C)c([N+](=O)[O-])c2)cc1OC,inactive
21,Cc1cc(C)c(CN2CCN(Cc3ccc(C)o3)C(CCO)C2)c(-n2cccn2)c1 (configuration not stated),"inconclusive [inhibitor, partial curve]"
